The full ranking holds about 33,000 sequences; the median of “E-score (-0.5 to 0.5)” is about -0.04, and the highest 2% start at about 0.36. Some of the results follow.
Molecular target: T1, Hmlalpha2 (UniProt P0CY09)
T1 sequence: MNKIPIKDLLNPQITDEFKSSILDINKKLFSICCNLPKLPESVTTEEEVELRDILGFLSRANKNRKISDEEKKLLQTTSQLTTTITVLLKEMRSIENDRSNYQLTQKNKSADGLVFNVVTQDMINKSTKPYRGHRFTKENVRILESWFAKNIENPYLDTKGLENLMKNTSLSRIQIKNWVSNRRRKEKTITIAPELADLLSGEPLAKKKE
Test: PBM E-score (8-mer binding enrichment) (E-score (-0.5 to 0.5)); higher = stronger / more preferred TF binding; most listed sequences are background and not binding sites
Details: protein concentration: 200 nM; construct: GST-full length
Procedure, shortened: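 Detection of bound protein used fluorescent anti-GST, with scans normalised by masliner. The proteins were GST-tagged yeast transcription factors applied at about 100-200 nM to universal all-10-mer Agilent arrays made double-stranded by primer extension. Each ungapped eight-base word, pooled with its reverse complement, was scored with an E-score from the Universal PBM Analysis Suite.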

Sequence | PBM E-score
GTATGATA | 0.287
ACGTCAAA | 0.25
CACCCTTA | -0.117
AATATTAA | 0.25
AGCCTAAT | -0.0707
CGGTCCAG | -0.224
AACAACGC | 0.254
ATATATGA | 0.108
CTTTCGTA | 0.00759
ACGCTAGG | -0.174
GACGTACC | -0.0623
AGCTCTTG | -0.0127
ATTAAAGG | 0.113
ACGGCGGC | -0.14
AGTGCTGA | -0.108
ACGAACCG | 0.00216
CCCTTACC | -0.165
GAAACTTC | -0.121
CGGGTACC | -0.239
ATCCGTCC | -0.272
ATTTCCAC | 0.069
GGAACGTA | 0.0173
CGCGGAAG | -0.0872
GCATTGCC | -0.0338
AATAACTC | 0.0959

Sequence | PBM E-score
AATAGTTC | 0.151
ACCGGTGC | -0.25
CCCAGCCC | -0.389
CCGCTAAA | -0.175
AAGTATCG | 0.154
GGATCCAA | -0.0601
TACGCGAA | 0.332
CATGATGA | 0.21
AGGCTAGG | -0.348
AAGGCGGT | -0.0706
CGATCATC | -0.0477
TTGCACAA | 0.203
AGCATGTG | 0.22
CAACAGGC | 0.0114
AATCCAGT | -0.0636
TATTTCAA | 0.188
CCTTAGGA | -0.169
AGGTCTTG | -0.13
AAGGGGGA | -0.232
ATTGTATA | 0.171
CGGAGGAA | -0.0987
TGGCAACA | 0.13
AAAGTTGC | -0.104
TACCGTCA | -0.193
TAGCTCAA | -0.0444

Sequence | PBM E-score
CGCCCAGA | -0.216
TGAGCGCA | -0.151
AGGGCCCC | -0.303
AGGGGTCC | -0.286
ACCGTTTG | -0.113
CCTGGCGA | -0.245
AAGGCGTG | -0.0975
GGCTTTGA | -0.146
CGACCCTC | -0.219
AACTAAGG | 0.029
GACGCCCA | -0.255
AGGCGAAC | -0.0962
CTAATAAA | 0.156
GAGAAGCA | -0.172
AGCTAACA | 0.127
AGGCCAAT | -0.244
CCGTTAGG | -0.136
GAGAGGGA | -0.221
ATCCCTAC | -0.0149
CAATAGAC | 0.0079
ACATCCCA | 0.105
CGGGTCAA | -0.0612
CACCTTAA | -0.103
GTGTTGGA | 0.224
TACGTAAA | 0.41

Sequence | PBM E-score
GTCGACAC | 0.267
CATCGTAC | 0.0679
AATTATGG | 0.05
TGGTCAAA | 0.0883
CCAGCCCC | -0.239
TGTGAACA | 0.276
GTCAGCGA | -0.185
ACGGGACG | -0.176
AATCAGGG | -0.316
GCACCCCA | -0.251
ATGAATTG | 0.00136
ATATTCAG | 0.106
ATGAGTCA | -0.0308
CCCACCAG | -0.143
AAATATGT | 0.277
CAAGTCCG | -0.0826
AAAATACT | 0.0699
ACATGCCC | 0.323
AGGTCTAA | -0.0143
ACCACGGT | -0.134
CCCGTAGA | -0.3
ACAATCGC | 0.159
AGACCTTA | 0.00677
TATAATAA | 0.225
AGATTACG | 0.261

Sequence | PBM E-score
TTTCCAAA | 0.00373
CCAATGGG | -0.394
GTTGATGA | 0.113
CATTCTCA | 0.0464
ACCTCACC | -0.149
TATATAAA | 0.235
ACTCATGA | -0.0271
GATTTTGA | 0.12
CACGGCCG | -0.0123
AATTTATG | 0.237
AGGACGAC | -0.194
CATACGCA | 0.198
GAGAGTTA | 0.00013
CGAAAATA | 0.144
ACTCGCGC | -0.0754
ATCTCTTC | -0.0365
CCATTACC | -0.0103
AGATCAGC | -0.177
AGGCAAGA | -0.0128
AAACTTAT | 0.167
CATCCGCA | 0.086
CGACGACG | -0.0668
CTTTATTA | 0.185
TGGGTCAA | -0.195
CACGTTCC | 0.0632

Sequence | PBM E-score
CATCTAGC | -0.0263
ACCGGTTC | -0.26
ATGAAGCG | -0.108
CGCGACGA | 0.0277
CAAGCTAG | 0.0741
CAAACACA | 0.334
AGAGTAGA | 0.0362
AGGTCGCC | -0.344
GCCTAGGA | -0.256
CTGCTTGC | -0.0894
CAATTGAG | -0.0077
ACACCCCG | -0.238
ACAGCACA | 0.28
CGGCTTTA | -0.0882
GCCCCGCA | -0.218
ATCTGTAA | 0.158
ACTTAGCT | -0.146
ACCTGTCT | -0.328
AACTAACG | 0.185
TACGGCCA | -0.262
GCGAGAAC | -0.0962
GCATCCGA | -0.226
AGTCGACC | -0.251
ATGGGCAG | -0.259
CCAAACGA | -0.202

Sequence | PBM E-score
CCCGAAGA | -0.24
CGATCGGC | -0.12
GGACTAAA | -0.0757
AATCAGAG | -0.101
AAAGTCGC | 0.101
GTAACACA | 0.324
CGGACTGA | -0.27
CGCCCCTA | -0.159
AACAGTAG | 0.129
ACGACGTC | -0.169
CAAGAGAA | 0.154
CGTACTGA | 0.0611
ACGGAGCT | -0.19
AAGCCCCA | -0.357
ATTTTCTG | -0.131
ATAACTGC | 0.0983
AGCAAGTC | -0.0673
ATCTATCG | -0.0801
GATTCTAA | 0.0651
AAATCGGA | -0.121
GTCATTGA | 0.0956
AAGTCCGG | -0.249
ACCGCACA | -0.158
ACCTATTC | -0.184
AAAGGCTA | -0.152

Sequence | PBM E-score
GCGTCACA | -0.138
CCTCCAAA | -0.145
ACGTCGGC | 0.128
AGTAAGAG | -0.0366
AACATAGG | 0.38
CACACCGC | -0.0386
TAAACTGA | 0.107
ACAAGGGA | 0.152
ACGCTCGA | -0.0985
AGTTGTAG | 0.122
GCTGCGCA | -0.161
AGCTGACA | 0.133
AGCGGCCT | -0.243
CCGTATTC | 0.0456
GCTAAGTA | 0.221
CCTTTGCA | 0.0538
CACGCGTC | 0.174
GGGTAACA | 0.17
ATATAATA | 0.199
CGCCATGC | -0.0795
CACGGGGC | -0.0642
CGCCGTGA | -0.0727
AGAGGTCA | -0.192
GGGGGACA | -0.264
CGCCTTAA | 0.153

Sequence | PBM E-score
CGTGGAAG | 0.00434
GGTGTGGA | -0.101
CATTCACG | 0.0115
GGACCTAA | -0.157
ATCACTTC | -0.0191
AGACCCTC | -0.192
CCCTTAAC | -0.0469
CACGGGCA | 0.0513
CAGTAACC | -0.0933
AACTTTGT | 0.147
CTTCTGGC | -0.267
GGTTATCA | -0.162
ATTCCCCA | -0.166
CTTTTGTA | 0.191
AGCGAGAC | -0.201
CTCATGCC | -0.23
ACGACGGG | 0.0157
CCTGGACA | -0.219
TGCAACCA | -0.0594
GTGGTGAA | -0.123
CCTAGTAC | 0.134
CCAGGCAA | -0.265
CTGCACCA | -0.239
CGTTCAAA | 0.0795
AGTTCCTG | -0.266

Sequence | PBM E-score
CATTGCGA | 0.0418
AATCTGAT | 0.0185
TGGCTCAA | -0.206
CCTCTTAC | -0.00492
GGGTTAAC | 0.185
AGCAAACA | 0.104
CCAGGTCA | -0.0431
CAGCGTCA | -0.195
GGATTCCC | -0.312
CATTGAGA | -0.0624
ACTACCTA | 0.167
GCTCTGCC | -0.162
CCCTAGCA | -0.125
GTGTAGAA | 0.445
CTATAGAC | -0.156
CGACGAAG | -0.00856
GGTTTGCA | 0.0728
AGCTTGGG | -0.235
AATTACCC | -0.0352
CCAAAGCA | -0.0847
CCAGAACC | -0.116
GAAATGAA | 0.135
CAGAATGA | -0.188
ATCCTTGC | -0.0705
AACCATTG | 0.159

Sequence | PBM E-score
AGCCATAC | -0.142
TGCACAAA | 0.104
CCCGGATC | -0.176
CAGGGTCG | -0.266
CTCTTTTA | -0.152
AGGTTCCG | -0.123
AAAGATCC | -0.15
CTTTTTAC | 0.274
AAGATCGT | -0.0468
ATGGTAAA | 0.185
CGGAATAA | -0.0527
CACTGCAC | 0.0538
AGTTCTTG | 0.23
ATGGCAAC | 0.15
GAATGGTA | 0.232
GTGTGTGA | 0.205
AAATCGTA | 0.0949
GTTCTTCA | 0.0278
CACACAGG | 0.149
ACAGACTC | -0.0748
GATGTTGC | -0.0127
GCTGCCAA | -0.129
ATATGGCA | 0.00219
CACCCACG | 0.056
CGCTGTCA | -0.167

Sequence | PBM E-score
ACCAGTTA | 0.0772
AATCCTCG | -0.164
CCGTTTAA | -0.00198
AGTGTCTC | -0.253
GCTGCGGA | -0.259
GGACCCTA | -0.301
GTGTATCA | 0.263
ACAACAAG | 0.298
CAGCACAC | -0.042
CTAGCACA | -0.0578
ACGTGCAT | 0.231
ACTTCCCC | -0.218
TTCGACAA | 0.279
CGAGTAAC | 0.191
CCCCAACG | 0.0317
ACTCGTCA | 0.0364
CTTAGGGA | 0.0427
AAGTTAGG | -0.0362
AGTGTCAG | -0.0525
ACTCCATC | -0.0316
ATTAACCG | 0.0455
CAGTACTG | 0.0834
ATGGATGC | -0.0116
GACTCTAC | -0.149
TACTGGAA | 0.071

Sequence | PBM E-score
GGAGGGCA | -0.142
CGGTCTAG | -0.119
AAAATACG | 0.133
CAATTTCA | -0.0193
GTCCTAAC | 0.0264
CACAGCGC | -0.0719
CAATCGTA | 0.156
ACTAGGGC | -0.192
AAGGGGGG | -0.381
CGCCGCCG | -0.0863
ATCCAAAG | 0.102
GTTTGTTA | 0.26
ATGCGCGG | -0.0649
AAACTGCG | -0.0299
ATGGCAGA | -0.0394
ATTGATCG | 0.083
CCGCGCCG | -0.0597
CCCGAGTC | -0.129
ATGATGCG | 0.077
CAACGTGA | 0.11
TACGTTCA | 0.239
AATCCTTC | -0.0524
CACACCAC | 0.0299
ACACCAAC | 0.0119
GGTCCGAA | -0.0133

Sequence | PBM E-score
ACGCTACA | 0.173
GCGGAACC | -0.23
CCATCTTC | -0.15
TCACAGGA | 0.0453
TACATATA | 0.374
AGACTAGA | -0.166
TGTTGTAA | 0.401
CCTTGCCC | -0.198
AGCCAAGG | -0.161
AAAACTTA | 0.221
ATAACTTG | 0.217
TCCGTCAA | -0.0303
ATTTACAA | 0.453
AATAACCG | -0.0577
AATTTCAG | -0.0151
ACGGCCCC | -0.437
ACAGCAAG | 0.058
GACGTGAA | -0.0003
AACTAGCC | -0.0814

Reference: the supplement of paper PMC3334620
